Data: the supplement of paper PMC3334620
The full ranking holds about 33,000 sequences; the median of “E-score (-0.5 to 0.5)” is about -0.012, and the highest 2% start at about 0.27. The list shows a part of the results.

biological target: T1, Vhr1 (UniProt P40522); assay: PBM E-score (8-mer binding enrichment) (E-score (-0.5 to 0.5)); higher = stronger / more preferred TF binding; most listed sequences are background and not binding sites; details: protein concentration: 200 nM; construct: GST-full length
T1 sequence: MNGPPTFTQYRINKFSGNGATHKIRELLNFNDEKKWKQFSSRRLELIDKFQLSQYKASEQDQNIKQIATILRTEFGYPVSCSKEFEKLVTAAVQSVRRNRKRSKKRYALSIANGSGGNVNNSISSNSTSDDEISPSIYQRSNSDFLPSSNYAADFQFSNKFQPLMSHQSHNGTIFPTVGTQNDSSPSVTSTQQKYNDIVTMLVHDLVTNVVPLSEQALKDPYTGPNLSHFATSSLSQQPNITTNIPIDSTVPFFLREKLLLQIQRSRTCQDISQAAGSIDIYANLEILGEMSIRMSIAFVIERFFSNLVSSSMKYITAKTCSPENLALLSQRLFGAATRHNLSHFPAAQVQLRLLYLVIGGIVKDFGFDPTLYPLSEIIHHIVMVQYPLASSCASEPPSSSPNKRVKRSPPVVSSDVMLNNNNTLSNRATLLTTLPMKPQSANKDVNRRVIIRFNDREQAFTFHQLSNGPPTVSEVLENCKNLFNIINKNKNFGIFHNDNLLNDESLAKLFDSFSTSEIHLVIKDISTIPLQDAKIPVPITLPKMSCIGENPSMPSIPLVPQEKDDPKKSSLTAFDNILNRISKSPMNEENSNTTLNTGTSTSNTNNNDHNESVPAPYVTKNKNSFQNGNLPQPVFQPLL
Method in brief: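 Yeast transcription factors, full-length or as DNA-binding domains, were expressed with a GST tag using PURExpress in vitro transcription/translation. At about 100-200 nM they were applied to universal all-10-mer Agilent arrays, double-stranded by primer extension on fresh or once-stripped slides. Fluorescent anti-GST detected bound protein, and masliner normalised the scans. E-scores for ungapped eight-base words, pooled with reverse complements, came from the Universal PBM Analysis Suite.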

Sequence | PBM E-score
CCACCACA | -0.137
ATTATGAC | 0.0885
CGGGACCC | -0.181
CTTGAGGA | -0.11
CTTTGTTA | -0.158
CACGCTCG | 0.0681
AGCGCCCC | -0.141
ACCCGTCA | 0.0105
AGTGCAAA | 0.00965
GTGAGCAC | 0.103
CAGGTGCA | 0.162
CAACATAA | 0.108
CAAATCGG | -0.112
AATGGGAC | 0.0215
CACGATCG | 0.109
GTCGTCCA | -0.0218
ACATATGA | 0.0267
CGGACTCC | 0.2
AGGGTTAG | 0.0335
AAGACCGG | -0.166
CCTCAGGC | 0.0224
ACCCTTAC | -0.0384
CGATAAAA | -0.161
AACCTTGC | -0.0252
CTTTCAAC | -0.128

Sequence | PBM E-score
AAATACAC | -0.011
CAACTGCA | -0.00961
CAGCTAGG | -0.209
CACGTCTG | 0.103
ACGTCACA | -0.0538
CGATATAG | 0.161
CGGTGAAC | -0.0712
GGGCGACC | -0.121
GCGGAACA | 0.00367
GCCGTTTA | -0.0373
CCTACGGA | -0.0835
CGTTTGTA | -0.0254
GAAGTGGC | 0.0181
AGGCGCTG | 0.00932
ATGTTCAC | -0.00415
CCGACATC | 0.179
CTCTTCAG | -0.0887
CATGCTCC | -0.08
AGTGCGGG | -0.0413
AGAACAGA | -0.103
CTTTTGAC | -0.194
TGGAAAAA | -0.15
CGACCAAG | -0.126
AGTACTAG | 0.144
TATCCGCA | 0.163

Sequence | PBM E-score
GAGAATCA | 0.184
ATTCCAGA | -0.0176
CATGGGGA | 0.117
GATGTCAA | -0.114
TATATATA | 0.318
ATGCATGG | 0.28
AGGGAATA | -0.0529
ACAAGGAC | 0.0747
CGTTATTA | -0.198
CTCGTCTC | -0.12
AGACCTCC | -0.105
ACGTACGC | -0.204
CAAGCATC | 0.0248
GTAAGTTA | -0.0905
ATCTGGTA | -0.00683
GCACGCGC | 0.0771
ACGAGATC | -0.0876
AGGCTTCG | -0.0693
ACGCTCCG | -0.0609
GATCTTAA | -0.0349
ATGTATAG | 0.252
CACCGGCA | 0.0639
CTGCGTCA | -0.14
AGTTCGTC | 0.0641
ATTGCCTA | -0.17

Sequence | PBM E-score
CGCGTCCC | -0.0659
ACTGGGCT | -0.00153
AGTAATTG | 0.101
GTTAAGGA | -0.0499
AGACTGAC | 0.114
CTTGCCTA | -0.261
GCTGAAGC | -0.11
CTCTCTTC | -0.219
AAGCTCAA | -0.198
AACTTTAG | -0.23
AGCCCTCC | -0.09
CGAGGCGA | 0.153
AATACACG | -0.179
AGGCGGAC | 0.0539
CGACATGC | -0.0401
AGTTACGA | 0.0138
GACACGTC | 0.0792
CTTCAAGA | -0.266
GATATTAA | 0.169
AGCGAGCG | 0.0572
GATCTTAC | -0.186
ACGTGCAC | -0.173
GCCTGAGC | -0.058
ACTACGGG | -0.0349
GTGGCAAA | -0.131

Sequence | PBM E-score
ATGGGGGG | -0.0708
CTCTCTAA | -0.193
ATCTCCTA | -0.0969
CTGAGCCC | 0.205
ACTACACC | 0.0897
AGGTCTCC | -0.0486
CAATAGAA | -0.22
CTTTCGGA | -0.239
GAGCATTA | 0.0481
AGGAACGC | -0.12
AAGAGGGT | -0.255
AGTCAATC | 0.231
AGTGCCTA | -0.179
ACTGCGAG | 0.0985
AATTTGGG | 0.0489
ATCCCAAT | -0.0808
AGAGCGCA | -0.145
AACTCGAC | 0.172
ACCCGATC | 0.0339
AAGTGCAG | -0.193
CACCTAGG | -0.073
CTAGCATC | -0.0731
ACAACTGT | -0.0775
CGGGACGC | -0.169
AAGAGCTC | -0.34

Sequence | PBM E-score
CTTTGTAC | -0.0665
ATACCCAT | 0.269
AACACGTG | 0.122
ACTGCCAG | 0.131
GGTCTTAA | -0.218
CTAGGCCA | -0.151
TCTTGAAA | -0.13
CATGACAA | 0.0092
GAGAATAC | 0.154
CCGCATGA | 0.146
CCCCGTCC | -0.0277
AAGCCGCG | -0.0488
CAGCCAGG | 0.0621
ACGCCATA | 0.0809
CCTCTAGC | -0.228
ACACTACT | 0.125
CGAATCCC | 0.00269
AAATTCAA | -0.231
CATCCTAA | 0.00126
TGACTTAA | 0.118
ACACAAGC | 0.255
AATTCGGG | -0.172
AAAGCCAG | -0.0737
CTGAGGAA | -0.261
CTGCTATC | 0.107

Sequence | PBM E-score
GGTCTTGA | -0.0702
AGGGTTAA | -0.167
ATAGTATC | 0.0288
AATGGACC | -0.0459
AGCAAGTA | 0.0454
ACCTGATG | 0.147
AAAACGCA | 0.00163
ACATTTGC | -0.0424
ACAGAATG | 0.0432
ACAACCCG | 0.0771
GGCCGCTA | -0.155
ACCCGGTG | 0.0291
CAAATGGC | -0.185
ACGATGAA | 0.151
CGTTGGAC | -0.0825
AAAGAAGA | -0.162
ACGGTGGC | 0.12
CCGGTATC | -0.0549
AACGCAGG | 0.132
GACTTGGA | -0.0645
CGACGAAA | 0.0886
CGGTCTGC | 0.0253
